Results reported in PubChem BioAssay AID485297 (National Center for Advancing Translational Sciences (NCATS), 2010).
Among all 320,000 compounds or so, about 9,100 (2.8%) were called active. Inconclusive results, whose numbers are uncertain, are shown with a selection of clear calls. The call rests on the fitted dose curve; in most records, active means well fitted activation curve with a large enough effect; inconclusive means small, poorly fitted or top-dose-only effect; inactive means no such curve, though single readings can be large or run the other way. No potency is given beside an inconclusive call; the fits are too rough.

Experiment: qHTS Assay for Rab9 Promoter Activators; further: nearly all actives have a fitted effect of over 60% in size; on activation, negative = inhibition: % of control where 0% means no effect
Settings: Huh7 Rab9 promoter-luciferase reporter, luminescence, 24 h; series mostly up to 9.22 µM
Procedure, shortened: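 Luminescence read-out: Huh7 cells stably expressing Rab9-luciferase, treated 24 h with compound at 37 °C, then lysed with luciferase reagent for 10 min at ambient before reading.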
Potency means the concentration at half of the fitted maximal effect; tags describe the fitted curve by direction and shape.

Compound | Potency | activation, negative = inhibition
CCOc1ccc(NC(=O)NCCCSC2CCCCC2)cc1 | inactive | 
CCC1(CC)Nc2ccccc2C(=O)N1c1ccc(NC(C)=O)cc1 | inconclusive [activator, partial curve] | 
CN1CCN(S(=O)(=O)c2ccc(C#N)cc2)C(c2ccccc2)C1 (stereo unspecified) | inactive | 
Cc1ccc(-c2nnc(SCC(=O)N(C)C)nc2-c2ccc(C)cc2)cc1 | inactive | 
Cc1ccc(C(=O)CSc2nc3ccccc3c(=O)n2N)o1 | active: 3.55 µM | 
Cc1ccc(OC(=O)c2cccc(S(=O)(=O)N(C)C)c2)c(-n2nc3ccccc3n2)c1 | active: 2.82 µM | 
O=C(Nc1ccc(Cl)cn1)c1ccc2nccnc2c1 | inconclusive [activator, partial curve] | 
CSc1ccc(C(=O)C2CCCN(C(=O)c3ccc4c(c3)no[n+]4[O-])C2)cc1 (stereo unspecified) | inactive | 
COc1ccc2[nH]c(C(=O)Nc3ccc(C)c(F)c3)cc2c1 | inconclusive [activator, single point] | 
COC(=O)c1ccc(/C=C/c2ccc3cccc(OC(C)=O)c3n2)cc1 | active: 3.55 µM | 
CCOC(=O)c1ccc(NC(=O)CC2SCCNC2=O)cc1 (stereo unspecified) | inconclusive [activator, partial curve] | 
COc1ccc(CN2CCN(c3nc4ccccc4s3)CC2)cc1 | inconclusive [activator, single point] | 
Cc1ccc(N(C)C(=O)c2cc(S(=O)(=O)N3CCCCC3)c[nH]2)cc1 | inactive | 
CCCCNC(=O)c1onc(CSc2ccccc2C)c1C(=O)O | inconclusive [activator, partial curve] | 
COc1ccccc1/C=C/C(=O)c1ccccc1 | inconclusive [activator, partial curve] | 
CC1CC(C)CN(CCCNC(=O)c2ccc3nc(N4CCCCC4)sc3c2)C1 (stereo unspecified) | inconclusive [activator, partial curve] | 
CC1CC1c1ccc(/C=C(\C#N)C(=O)Nc2ccc(Cl)cc2)o1 (stereo unspecified) | active: 3.55 µM | 
O=C(O)CCC/C=C\C[C@@H]1[C@@H](/C=C/[C@H](O)C2Cc3ccccc3C2)[C@@H](F)C[C@@H]1O | inconclusive [activator, single point] | 
c1ccc(-c2ccc(-c3nc(-c4cccnc4)no3)cc2)cc1 | inconclusive [activator, partial curve] | 
Cc1c(-c2cc(Br)ccc2O)nc2cc3c(cc2c1C)OCO3 | inconclusive [activator, single point] | 
Cc1ccc(N2CCN(C(=S)c3ccc(N(C)C)cc3)CC2)cc1 | inconclusive [activator, partial curve] | 
Cc1cnc(C(=O)Nc2ccc(C(C)C)cc2)cn1 | active: 1.26 µM | 
Cn1cc(-c2nnc(-c3ccccc3)o2)c2ccccc21 | active: 2.24 µM | 
Cn1ncc(Br)c1NC(=O)c1ccco1 | inactive | 
Cc1ccc(-n2nc3c(c2NC(=O)CC(C)C)CS(=O)(=O)C3)cc1 | inactive | 
CCOc1ccccc1N1CC(C(=O)Nc2cccc(S(=O)(=O)N3CCCCC3)c2)CC1=O (stereo unspecified) | inactive | 

Compound | Potency | activation, negative = inhibition
COC(=O)C1C(=O)C=C(N2CCOCC2)CC1(C)C (stereo unspecified) | inactive | 
C(=N\N1CCN(c2ccccn2)CC1)/c1ccco1 | inconclusive [activator, single point] | 
O=C(COc1ccc(S(=O)(=O)N2CCOCC2)cc1)Nc1ccccc1Cl | inconclusive [activator, single point] | 
N#C/C(=C(/O)c1cc2ccccc2o1)c1nc2ccccc2s1 | inconclusive [activator, partial curve] | 
Cn1c(-c2ccccc2)c(/C=N/NC(=O)c2ccc(O)cc2)c2ccccc21 | inconclusive [activator, partial curve] | 
COc1ccc(CCNc2nc(C)nc3c2nnn3Cc2ccccc2)cc1OC | inactive | 
COc1ccc(C2NC(=O)NC(C)=C2C(=O)OC2CCC(C)CC2)cc1 (stereo unspecified) | inactive | 
O=C(Nc1ccc(CN2CCOCC2)cc1)c1ccc(F)cc1 | inconclusive [activator, partial curve] | 
O=C(Nc1ccc2c(c1)OCCO2)c1ccc(S(=O)(=O)N2CCCCC2)cc1 | inconclusive [activator, single point] | 
Cc1cc(C)c(S(=O)(=O)c2ccccc2F)c(=O)[nH]1 |  | inactive: -0.164% [at 1.84 µM]
O=C(Nc1cc(N2CCCCC2)ncn1)c1ccc(F)cc1 | inconclusive [activator, single point] | 
COc1ccc2o/c(=N/NC(=O)c3cccs3)c(C(N)=O)cc2c1 | inconclusive [activator, single point] | 
Cc1ccc(C(=O)Cn2nc(C(=O)O)c3ccccc3c2=O)cc1C | inactive | 
O=C(NC(=S)NCCO)c1sc2ccccc2c1Cl | active: 2.82 µM | 
O=C(O)c1cc(-c2cccnc2)nc2ccc(Br)cc12 | inactive | 
CC(=NCC1CCCO1)c1c(O)[nH]c(=O)[nH]c1=O (stereo unspecified) | inactive | 
C(=C\c1nc(N2CCCCCC2)c2ccccc2n1)/c1ccccc1 | inactive | 
COc1ccc2cc(C3=CCCCC3)ncc2c1 | inconclusive [activator, partial curve] | 
CCOc1ccc2nc(NC(=O)CSCC(=O)Nc3cc(C)on3)sc2c1 | active: 3.16 µM | 
CC(=O)C1=C(C)Nc2ncnn2C1c1ccc(Br)cc1 (stereo unspecified) | inactive | 
O=C(COC(=O)Cn1cnc2ccccc21)Nc1ccc2c(c1)C(=O)c1ccccc1C2=O | inconclusive [activator, single point] | 
CC1(NC(=O)NCCCCCCNC(=O)NC2(C)CCS(=O)(=O)C2)CCS(=O)(=O)C1 (stereo unspecified) | inactive | 
Cc1c(Cl)cccc1NC(=O)NCc1ccc(F)cc1 | inconclusive [activator, single point] | 
Cn1c(=O)n(C/C=C/c2ccccc2)c(=O)c2c1nc1n2CCCN1c1ccc(F)cc1 | inactive | 
CCOc1ccc(/C=C\C(C)=N\O)cc1 | active: 2.24 µM | 
